# Some of the results follow. At the low end of the ranking, values are background and their order means little.
# Biological target: T1, GST-Rok (full length) (UniProt O34857)
# T1 sequence: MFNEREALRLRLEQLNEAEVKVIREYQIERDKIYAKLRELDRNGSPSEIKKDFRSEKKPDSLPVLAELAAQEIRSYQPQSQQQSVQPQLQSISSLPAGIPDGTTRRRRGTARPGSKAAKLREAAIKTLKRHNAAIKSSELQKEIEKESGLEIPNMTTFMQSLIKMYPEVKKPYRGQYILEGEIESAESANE
# Assay: protein binding microarray;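 note: rank score from −0.5 (least bound) to 0.5 (best bound)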
# Conditions: Rok is a gene silencer of Bacillus subtilis; high values mean tight binding; most listed sequences are background and not binding sites; double strand, one strand shown
row,Sequence,binding signal
1,GAGACCCA,-0.192 E-score
2,ATAATAAC,0.312 E-score
3,TAGCCTCA,-0.187 E-score
4,TAAGTTAA,0.115 E-score
5,CCTCATTA,0.0482 E-score
6,ATGAAGGA,0.00444 E-score
7,ACACCGTC,-0.197 E-score
8,AGAGGCAG,-0.233 E-score
9,AGCCGCGA,-0.324 E-score
10,CCCAAGAG,-0.222 E-score
11,ACAAAACC,0.128 E-score
12,ACTGGTGG,-0.172 E-score
13,CCGCACCG,-0.183 E-score
14,AAATCGCG,0.148 E-score
15,ACCTCACT,0.0538 E-score
16,GCCGGGAC,-0.294 E-score
17,ACTACTCT,0.184 E-score
18,AAGACTAT,0.00947 E-score
19,GCTCTAAC,-0.00172 E-score
20,CCGGCAAA,-0.201 E-score
21,CCCTAAGA,-0.154 E-score
22,CGTTCTTC,-0.184 E-score
23,TACTCCGA,-0.0414 E-score
24,ACGGGGTG,-0.298 E-score
25,CCACTCGC,-0.298 E-score

row,Sequence,binding signal
1,ATCGCGCC,-0.076 E-score
2,AGTATTTA,0.344 E-score
3,ACAACTAC,0.311 E-score
4,CTATGCAG,0.106 E-score
5,CTGTCGGA,-0.204 E-score
6,GACGGCTC,-0.232 E-score
7,AAAAGAAG,-0.0684 E-score
8,AGAATCTG,-0.0414 E-score
9,ACACCAAG,0.000503 E-score
10,ATTCCTGA,0.107 E-score
11,GGGTAGAC,-0.127 E-score
12,GAATATTC,0.417 E-score
13,CTCCCGTC,-0.338 E-score
14,GTCAGAAA,0.0359 E-score
15,ACGCGCGG,-0.271 E-score
16,CTCCTGAC,-0.242 E-score
17,ACCAGGAA,-0.129 E-score
18,CTACATCA,0.224 E-score
19,CGAGCTCG,-0.0466 E-score
20,AGTGCAAT,-0.0242 E-score
21,ACCGATGC,-0.137 E-score
22,AACCCTAT,-0.0286 E-score
23,AACATTGT,0.0865 E-score
24,GACTTGCA,-0.0759 E-score
25,CCGATGCA,0.0404 E-score

row,Sequence,binding signal
1,GCAGACAA,-0.0395 E-score
2,CACTTTCG,-0.0513 E-score
3,AGTGACAG,-0.0878 E-score
4,AGCTACAT,0.364 E-score
5,AATTCAGA,0.0748 E-score
6,GACGAAAA,0.0831 E-score
7,GGCTGACA,-0.101 E-score
8,GGTCCCCA,-0.327 E-score
9,ATAGAAAC,0.288 E-score
10,CTCAAAGC,-0.213 E-score
11,TCTCACAA,0.0413 E-score
12,TCTCGGCA,0.145 E-score
13,AATTCACA,0.134 E-score
14,GCCACTGA,-0.0539 E-score
15,GATGCGGA,-0.167 E-score
16,ACAAATAC,0.249 E-score
17,GGATCCAC,-0.117 E-score
18,ATTTCTGC,0.185 E-score
19,CCTTCCCC,-0.337 E-score
20,AACGGGCC,-0.417 E-score
21,TCATGGGA,-0.123 E-score
22,GGTACCGA,-0.0238 E-score
23,ATTGAGGA,0.0269 E-score
24,CAAACAGA,-0.141 E-score
25,ATGTTGTA,0.223 E-score

row,Sequence,binding signal
1,ACACCCGG,-0.155 E-score
2,GCTCATTA,0.00161 E-score
3,AGAATTCG,0.268 E-score
4,AAGCGAAC,-0.192 E-score
5,ATACTCTG,0.155 E-score
6,AGAGAAGC,0.136 E-score
7,ACTCTACC,-0.0638 E-score
8,CATCCTCG,-0.271 E-score
9,CTGCCAAA,-0.105 E-score
10,AAGCAGTG,-0.155 E-score
11,GCTGGCAA,-0.0219 E-score
12,CAACAGGC,-0.15 E-score
13,GTGACTAA,0.192 E-score
14,CTGTTAGA,0.0215 E-score
15,ACCAGCCC,-0.19 E-score
16,CATTATCC,0.0873 E-score
17,CGCCAACA,-0.186 E-score
18,CTGACACC,-0.357 E-score
19,AGGCTGTC,-0.203 E-score
20,AGCGAACC,-0.182 E-score
21,CGGGACCC,-0.294 E-score
22,TCGTTAAA,0.139 E-score
23,ATGCGTCG,0.0289 E-score
24,GCTTAACC,-0.192 E-score
25,AGGACGCA,-0.14 E-score

row,Sequence,binding signal
1,CAATAAGC,-0.0678 E-score
2,CGGACAGA,-0.166 E-score
3,CGCTTCAG,-0.0799 E-score
4,CGCATGTC,-0.109 E-score
5,AGAGTACC,0.0344 E-score
6,ATGCGACG,0.068 E-score
7,GACATAGC,-0.121 E-score
8,CTGCGAAG,-0.0465 E-score
9,GCAAGCAC,-0.127 E-score
10,CGCGACTC,-0.29 E-score
11,CCAATGTC,-0.0124 E-score
12,CCAGGGCC,-0.324 E-score
13,TTTGAAAA,-0.0372 E-score
14,ATCGCCCG,-0.204 E-score
15,CCGCCCGC,-0.265 E-score
16,ACCTCAGA,-0.201 E-score
17,CCAAAAAG,-0.177 E-score
18,ACATGGCG,0.0887 E-score
19,ACGTTGTG,0.0505 E-score
20,GTGACACA,-0.0597 E-score
21,ACATGCTG,0.026 E-score
22,ACTGACGC,-0.141 E-score
23,CTGACAAA,-0.0817 E-score
24,CGCATGCG,-0.208 E-score
25,AGGCGTGA,-0.0745 E-score

row,Sequence,binding signal
1,AGTTCTAT,0.213 E-score
2,CACTTCGC,-0.0466 E-score
3,CGTTCTGA,-0.0208 E-score
4,AGGGTCTG,-0.253 E-score
5,CGCGGAAA,0.0815 E-score
6,AGTTGCTA,0.244 E-score
7,GCCTTGAA,-0.261 E-score
8,ACCTATGC,-0.000435 E-score
9,GTACTGAA,0.158 E-score
10,ATTCAGAG,-0.175 E-score
11,GTACCTAC,0.353 E-score
12,CAAATTAG,0.21 E-score
13,CGATTACA,-0.181 E-score
14,CCCCCAGG,-0.424 E-score
15,CCCTTAGA,-0.105 E-score
16,AAGTTGAT,0.0883 E-score
17,CTCAAACA,-0.035 E-score
18,AGGTGCCA,-0.0282 E-score
19,GTACAGAA,0.159 E-score
20,AATTCAGT,0.0755 E-score
21,CTAGGCTC,-0.143 E-score
22,CGGCGAGC,-0.228 E-score
23,CTAACGAA,0.136 E-score
24,ACAGTCTA,0.147 E-score
25,CAAAATCG,0.124 E-score

row,Sequence,binding signal
1,GGAGCACA,-0.305 E-score
2,ACGCTACC,0.282 E-score
3,AAAGTTTC,0.104 E-score
4,TCGACCCA,-0.108 E-score
5,CCAATTTA,0.108 E-score
6,GCAGCCCA,-0.328 E-score
7,CGCCGTAC,-0.124 E-score
8,ATTAGCAC,0.0616 E-score
9,CCCGAGAC,-0.319 E-score
10,GCTTTCCC,-0.318 E-score
11,CCAAATGG,-0.148 E-score
12,AGCTATTC,-0.0609 E-score
13,CGCCCGAC,-0.318 E-score
14,CCACCCGA,-0.386 E-score
15,GGCTATTA,0.159 E-score
16,AGCAGGCC,-0.348 E-score
17,TAGTTAGA,0.325 E-score
18,CGGAACCA,-0.174 E-score
19,GTTAGGTA,0.191 E-score
20,GCGGGAAC,-0.293 E-score
21,AAGATCTC,0.00399 E-score
22,CTATAATA,0.355 E-score

# — article PMC6212790
